Biological target: human CD47 (human, UniProt Q08722)
Test: flow cytometry on Jurkat cells

B1: TTI-621 (Fc fusion)
chain: not shown
- Kd: 2.3 nM

Reference: US20210206829A1 (published 2021)
